Experimental data from patent US20190375823A1.

Key:
[1] = biological target: HER2 and HER3 on cells (MALME-3M or SKOV cells); test: FACS; column head prints Bmax (MALME 20120603)
[2] = biological target: HER2 and HER3 on cells (MALME-3M or SKOV cells); test: FACS on SKOV-3 cells, FITC-labeled anti-HSA detection
[3] = biological target: HER2 and HER3 on cells (MALME-3M or SKOV cells); test: FACS on MALME-3M cells (2012529), FITC-labeled anti-HSA antibodies
[4] = biological target: HER2 and HER3 on cells (MALME-3M or SKOV cells); test: FACS on SKOV cells (20120803), FITC-labeled anti-HSA antibodies; apparent Kd
[5] = biological target: HER2 and HER3 on cells (MALME-3M or SKOV cells); test: FACS on MALME-3M cells (20120529), FITC-labeled anti-HSA antibodies; apparent Kd

Bmax [1]: 2660 | EC50 (read off the curve) [2]: 8 nM | Bmax [3]: 323 | Kd [4]: 9.4 nM | Kd [5]: 200 nM
B1: v1090: AlbuCORE_1 (ABH2) with anti-HER3 at the N terminus of fragment 1 and anti-HER2 (B1D2) at the C terminus of fragment 2 (bispecific antibody)
chain 1: QVQLQESGGGLVKPGGSLRLSCAASGFTFSSYWMSWVRQAPGKGLEWVANINRDGSASYYVDSVKGRFTISRDDAKNSLYLQMNSLRAEDTAVYYCARDRGVGYFDLWGRGTLVTVSSASTGGGGSGGGGSGGGGSQSALTQPASVSGSPGQSITISCTGTSSDVGGYNFVSWYQQHPGKAPKLMIYDVSDRPSGVSDRFSGSKSGNTASLIISGLQADDEADYYCSSYGSSSTHVIFGGGTKVTVLGGGSDAHKSEVAHRFKDLGEENFKALVLIAFAQYLQQCPFEDHVKLVNEVTEFAKTCVADESAENCDKSLHTLFGDKLCTVATLRETYGEMADCCAKQEPERNECFLQHKDDNPNLPRLVRPEVDVMCTAFHDNEETFLKKYLYEIARRHPYFYAPELLFFAKRYKAAFTECCQAADKAACLLPKLDELRDEGKASSAKQRLKCASLQKFGERAFKAWAVARLSQRFPKAEFAEVSKLVTDLTKVHTECCHGDLLECADDRADLAKYICENQDSISSKLKECCEKPLLEKSHCIAEVENDEMPADLPSLAADFVESKDVCKNYAEAKDVFLGMFLYEYARA
chain 2: SVVLLLRLAKTYETTLEKCCAAADPHECYAKVFDEFKPL[about 200 residues skipped]GGSGQVQLVQSGAEVKKPGESLKISCKGSGYSFTSYWIAWVRQMPGKGLEYMGLIYPGDSDTKYSPSFQGQVTISVDKSVSTAYLQWSSLKPSDSAVYFCARHDVGYCTDRTCAKWPEWLGVWGQGTLVTVSSGGGGSSGGGSGGGGSQSVLTQPPSVSAAPGQKVTISCSGSSSNIGNNYVSWYQQLPGTAPKLLIYDHTNRPAGVPDRFSGSKSGTSASLAISGFRSEDEADYYCASWDYTLSGWVFGGGTKLTVLG
